# Publication PMC10726135
# The list shows a part of the results. At the low end of the ranking, values are background and their order means little. The protein was read in a cell extract, so binding may be indirect.
# Biological target: T1, HNF4alpha2 (COS-7 nuclear extract) (UniProt P41235)
# T1 sequence: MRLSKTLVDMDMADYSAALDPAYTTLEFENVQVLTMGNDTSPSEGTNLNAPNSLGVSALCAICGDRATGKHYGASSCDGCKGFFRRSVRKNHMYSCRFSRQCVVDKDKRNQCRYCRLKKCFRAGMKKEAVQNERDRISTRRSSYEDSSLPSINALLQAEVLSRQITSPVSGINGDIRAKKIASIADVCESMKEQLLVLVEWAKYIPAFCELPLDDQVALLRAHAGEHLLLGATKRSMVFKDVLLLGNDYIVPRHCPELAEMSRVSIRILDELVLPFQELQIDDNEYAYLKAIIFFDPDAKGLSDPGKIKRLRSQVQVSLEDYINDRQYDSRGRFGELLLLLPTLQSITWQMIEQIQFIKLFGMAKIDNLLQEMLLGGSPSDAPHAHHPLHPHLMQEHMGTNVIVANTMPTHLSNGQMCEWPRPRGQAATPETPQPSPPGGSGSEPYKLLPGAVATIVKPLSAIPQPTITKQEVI
# Test: protein-binding microarray
# Conditions: COS-7 nuclear extract on double-stranded Agilent 4x180k PBM; binding buffer, salt, pH and temperature not given; high values mean tight binding; double strand, one strand shown; sequences stand for … in …GCCTAGGGAGATTAGAGTATCGGTCGA
row,Sequence,binding signal (log2 normalized intensity)
1,TTTTCCCTTCTGTTAGAATGTATTGAGAAG,1.36
2,AACCAAGGGTACACACCGTTAGCCAATATT,-1.15
3,GACCGTCCCTGGGTACAACTTTATCTAAGG,0.0384
4,GGAATGCGGGCTCCACCACTTGCTCACGAA,-0.969
5,CTTAGACCCCTGAATAGGTCTTGGAATGTG,1.75
6,CCAGGGCATTGCCGTTCAGGGCCACGGGAA,-0.917
7,ACAAGGAAAACAAGGTACAGAGAGTTTAAG,-1.12
8,GGGTACACATGGCCGTAAAGATAAGAACGC,-1.19
9,TCCTTTTCATTCTTTAAGGACCACATCAAA,1.75
10,GGCTGATTTCTCAGGAAGTGCTTGTTCCCT,0.316
11,ACACATCTTCCATCGGACTTTGATCTGCCA,6.22
12,GCCTGGTCTGCACTCCAGGAAAGACGAGTG,0.842
13,GTCCTTCCCAAGTCCTGCATGTGTTCACAC,1.37
14,AGATGGTCAAAGGTTGATGGTATGTTTCAG,3.07
15,AACATGTAATCATTTGGGACAAAGTTCATC,4.11
16,CGGCTGGGGATGAAGGGGGCGGGGGCGAAA,-1.04
17,TTAACTGAACCTAGATTCCAGGAAGAAAGA,-1.04
18,AGAAGCTGTTGGAAAGGGCACTGATAACCT,-1.09
19,CCTCGGCCGGCCCGGCAGCCCTGCTCCCCG,-1.09
20,ATTGTGTCATTGGTATCCACAGAGTTCATA,1.71
21,CTGGGAGATGAGCTCTGAACTAACAATTCT,-1.07
22,GGAACAACTTCGGGAATCTGACCTTTGGGA,4.89
23,CCTGCGTCTTATATAAGCTATTACTTGATT,0.592
24,GTGGCAGCATTGTGCTGAAAAGACTTCACA,-1.14

row,Sequence,binding signal (log2 normalized intensity)
1,TGGGGAAGTCTCTAGATGGGGTTGAGCAGA,-1.12
2,TTTTCCCGGTTTGTTCCATGCCACAGAATC,0.655
3,CTGAGGTTAAAGTCCACATTCTTTAGCATA,5.15
4,TCTCAGGGAGTGCAAACTTCTTTGAAGAAG,-1.16
5,CACCCCCCAAGTAGAGAGCAATTATGCACC,3.29
6,GGGACCTTGATGGCATTCTTGAGCTACCGC,-1.16
7,TTCTCTGTGACCTTTGGAAGGTGGGGGAGG,4.13
8,AGATATATCACCTGCCAGCTGTTATGAGTC,0.286
9,CCCTATCCCCAGATTCCAGGGGAGGGTAAG,-1.18
10,CATCTAAGGACAAACTTTGTCACTGCAAAT,0.452
11,CTTGGACTTTAACCTTTAGATTACTAGGAA,6.18
12,GGGGCATAGCCCATGCAAATACTCGGTGAC,-0.814
13,AGTTAGTTTACTTAGGCCTCCCAGAACGTG,1.24
14,GCTATCCCGGCCAACGGTCGGAAGGGAGGT,-1.19
15,GTATGCTATTAGTGGTTAAGTTTTCGAGGA,1.17
16,TCACCACATCTCCCACTGTGGACTCTGAGC,4.82
17,TCCAAGGAACCTCACGCGCTCCCTGTTTAG,-1.23
18,TGTAGACATTGGAATGCGGGCTCCACCACT,-1.19
19,CCATATCACATTTTAAGGTCTGGCATTCTT,1.37
20,CTGGATCCGTTAACAGCGGCATTCCTGTCA,-1.17
21,GTCTTAGGATCTGTGTTATGCTTGCAGGTG,1.5
22,TTCCCTGAGTTTCCATTAACTGAACCTAGA,0.529
23,TACAAACAGCCCTGACATTCTTGAGCTGCT,-1.15
24,GTCACCCTCCCCGCCACCCCCCAGAGGGCC,6.08

row,Sequence,binding signal (log2 normalized intensity)
1,TGAGCTTGAGTCCATCCCATCTTCCAGAAA,0.309
2,TCCCCCATGAAATTGAGATAAACATGAAAC,2.04
3,ACAGTAGGGAAAGTGGGGGGAAAGAATAAC,-1.2
4,GCAAACAGCACTCTCTGATTACACAGGCCT,-1.37
5,AGCTACTAGCAAATCTGCCCAACCTTTGCC,0.949
6,CTGGGAAGAGAAGGTGAACTTGCTCAACCT,-1.14
7,CTACCGTACCTAGGACAAAGCAAACACTCA,-1.2
8,CCAAGTGAGTAAGGAAAGCCACTTCCTGGC,-1.18
9,CTGGTGCAGTCCAAGAGGCCCAGGTAAACA,-1.21
10,GCTAACAGTAAAACTGAGATCTAAGCGATA,-1.26
11,GATGTTTGCCCATGATCATATGGACTATGT,3.41
12,AGCTCCACAGCTGGACTTTGGCTGCAAAAT,4.01
13,ATTGTCAGGCCAGTAGGTCAGTGTCCCTCT,1.24
14,GTAACCTGCAAAGAGCAAACTCCAGTTGTA,-1.03
15,AGTGAGACAGACATGCGACATGAGGAGCCT,-1.11
16,TTCCAGGGTTACCGGCAGAGAGAAGCCACT,-1.1
17,CTGCCAAATATTGGGCAATGCTAGGTCTTT,-0.788
18,GCATGAGGCCCCTTGCAATGCTGGAGGGAC,-1.25
19,GGTGGACAAGACTGGTTTTTCAGATCCCTC,-1.07
20,AAGTCTTTCCCTGCCAGTTCCATGTAATCC,0.625
21,CCGCTGGCGCCATCCAAAGGCCCGAGGGCC,-1.11
22,GCCCCATGCTGATAAGGGCCACAGATGGCC,-1.21
23,TCAAAGGGACAGCACTGGCATGCAGCAGGG,-1.06
24,AGTGATAAGGAACCTAGGAAATCAAAAACC,-1.24

row,Sequence,binding signal (log2 normalized intensity)
1,ACCTTTGGGCTCTGACCCGAAGGGTAGGAG,0.761
2,AAATCAGCCAGTGATTCAACTCTGACCCAT,3
3,TGAAAGCCAAGGCAGATATGAAAGAGCCAT,-1.25
4,TGTTCCCGTCCGTGCGGTCGGGCGCGCGGG,-1.01
5,GTAAATGATTCTCTTTGGAAATTGATTGGG,0.503
6,TGATAGCATCCCAGTAGAAAAAAAAATGGG,-1.08
7,CCTTATCTGGCCGCCTAATCCCCTGGCCTT,1.73
8,TCTAGCTACAGGAGAACAAAGTTCACCTTT,4.56
9,GTAAATTATCTTGATGGTTAAAGTCCAATC,4.89
10,GAGGCTCAGACCTGACCTTTGGATTCCCAG,6.53
11,AGAGTTCATAATTTTGGACTTTGTGCAAAT,5
12,CACCTGTGGGTAATTAACTCCCCCTGCCCC,4.7
13,AGGACCTTGGGAAAGGAGAAGCTGGAGATA,-1.08
14,ACAGCAGCTGACAGATGGTGACCAGACTAC,-1.16
15,TTCAACAGAACTGTTTGAGGGTAAAGATCT,0.338
16,CTTTTTGGGACTGATAACTTAGGCCCATAT,-1.13
17,CTGCTTCTTGGGTCAAAGTCTCTGGTACAA,2.73
18,TAGCTTATCATCTGATCCTTGTACCTGCGA,2.35
19,TCCTATTTCAACATCCTCTCAGGTCAAAGT,4.06
20,TAAAAAATGCAAGTTTATCGAGCTTGATTT,-0.831
21,TTTATTTACTTATGTTGTCCGGACACCAAC,0.562
